# Data as given in the supplement of paper PMC10928670.
# How the values were obtained:
# Test in all cases: Agar dilution by CLSI M07.
# [1] = compound: C=CC1=C(C(=O)O)N2C(=O)[C@@H](NC(=O)/C(=N\OCC(=O)O)c3csc(N)n3)[C@H]2SC1 [cefixime]
# [2] = compound: CC1(C)S[C@@H]2[C@H](NC(=O)Cc3ccccc3)C(=O)N2[C@H]1C(=O)O [penicillin G]
# [3] = compound: CC[C@H]1OC(=O)[C@H](C)[C@@H](O[C@H]2C[C@@](C)(OC)[C@@H](O)[C@H](C)O2)[C@H](C)[C@@H](O[C@@H]2O[C@H](C)C[C@H](N(C)C)[C@H]2O)[C@](C)(O)C[C@@H](C)CN(C)[C@H](C)[C@@H](O)[C@]1(C)O [azithromycin]
# [4] = compound: CN[C@@H]1[C@H](O)[C@H](NC)[C@H]2O[C@@]3(O)C(=O)C[C@@H](C)O[C@H]3O[C@@H]2[C@H]1O [spectinomycin]
# [5] = compound: CO/N=C(\C(=O)N[C@@H]1C(=O)N2C(C(=O)O)=C(CSc3nc(=O)c(O)nn3C)CS[C@H]12)c1csc(N)n1 [ceftriaxone]
Test System,MIC [1],MIC [2],MIC [3],MIC [4],MIC [5]
"Neisseria gonorrhoeae isolate 49 (GyrA: Wild type, ParC: Wild type, mtrR: -35A Del, G45D, penA: Type XII NonMosaic, A517G, ponA: L421P, porB: G120D)",0.03 µg/mL,2 µg/mL,0.5 µg/mL,16 µg/mL,0.03 µg/mL
"Neisseria gonorrhoeae isolate 50 (GyrA: Wild type, ParC: Wild type, mtrR: G45D, penA: Type I NonMosaic, ponA: Wild type, porB: G120D, A121N)",≤ 0.015 µg/mL,0.25 µg/mL,0.125 µg/mL,16 µg/mL,≤ 0.015 µg/mL
"Neisseria gonorrhoeae isolate 51 (GyrA: Wild type, ParC: Wild type, mtrR: -35A Del, G45D, penA: Type II NonMosaic, A517G, ponA: L421P, porB: G120N, A121D)",≤ 0.015 µg/mL,0.5 µg/mL,0.25 µg/mL,16 µg/mL,≤ 0.015 µg/mL
"Neisseria gonorrhoeae isolate 52 (GyrA: Wild type, ParC: Wild type, mtrR: -35A Del, penA: Type XXII NonMosaic, A517G, ponA: L421P, porB: G120K, A121D)",0.06 µg/mL,> 64 µg/mL,1 µg/mL,16 µg/mL,0.06 µg/mL
"Neisseria gonorrhoeae isolate 53 (GyrA: Wild type, ParC: Wild type, mtrR: -35A Del, G45D, penA: Type II NonMosaic, A517G, ponA: L421P, porB: G120D)",0.03 µg/mL,2 µg/mL,0.5 µg/mL,32 µg/mL,0.06 µg/mL
"Neisseria gonorrhoeae isolate 54 (GyrA: D95N, ParC: Wild type, mtrR: -35A Del, penA: Type XII NonMosaic, A517G, ponA: L421P, porB: G120K, A121N)",0.06 µg/mL,4 µg/mL,0.5 µg/mL,16 µg/mL,0.06 µg/mL
"Neisseria gonorrhoeae isolate 55 (GyrA: Wild type, ParC: Wild type, mtrR: -35A Del, G45D, penA: Type I NonMosaic, ponA: L421P, porB: G120D, A121D)",≤ 0.015 µg/mL,1 µg/mL,0.5 µg/mL,32 µg/mL,0.03 µg/mL
"Neisseria gonorrhoeae isolate 56 (GyrA: Wild type, ParC: Wild type, mtrR: -35A Del, penA: Type IV NonMosaic, A517G, G543S, ponA: L421P, porB: G120K, A121D)",0.03 µg/mL,1 µg/mL,0.25 µg/mL,32 µg/mL,0.06 µg/mL
"Neisseria gonorrhoeae isolate 57 (GyrA: Wild type, ParC: Wild type, mtrR: -35A Del, G45D, penA: Type XXII NonMosaic, A517G, ponA: L421P, porB: G120D, A121D)",≤ 0.015 µg/mL,4 µg/mL,0.25 µg/mL,16 µg/mL,≤ 0.015 µg/mL
"Neisseria gonorrhoeae isolate 58 (GyrA: Wild type, ParC: Wild type, mtrR: Wild type, penA: Type XXII NonMosaic, A517G, ponA: Wild type, porB: G120D)",≤ 0.015 µg/mL,0.25 µg/mL,0.06 µg/mL,16 µg/mL,≤ 0.015 µg/mL
"Neisseria gonorrhoeae isolate 59 (GyrA: Wild type, ParC: Wild type, mtrR: G45D, penA: Type XXII NonMosaic, A517G, ponA: Wild type, porB: G120D, A121D)",0.03 µg/mL,1 µg/mL,0.25 µg/mL,16 µg/mL,0.03 µg/mL
"Neisseria gonorrhoeae isolate 60 (GyrA: Wild type, ParC: Wild type, mtrR: Wild type, penA: Type I NonMosaic, ponA: Wild type, porB: Wild type)",≤ 0.015 µg/mL,0.06 µg/mL,0.06 µg/mL,16 µg/mL,≤ 0.015 µg/mL
"Neisseria gonorrhoeae isolate 61 (GyrA: S91F, D95G, ParC: Wild type, mtrR: -35A Del, penA: Type XII NonMosaic, A517G, ponA: L421P, porB: G120K, A121D)",0.03 µg/mL,2 µg/mL,0.25 µg/mL,16 µg/mL,≤ 0.015 µg/mL
"Neisseria gonorrhoeae isolate 62 (GyrA: Wild type, ParC: Wild type, mtrR: A39T, penA: Type II NonMosaic, A517G, ponA: Wild type, porB: Wild type)",≤ 0.015 µg/mL,0.25 µg/mL,0.125 µg/mL,16 µg/mL,≤ 0.015 µg/mL
"Neisseria gonorrhoeae isolate 63 (GyrA: Wild type, ParC: Wild type, mtrR: G45D, penA: Type II NonMosaic, A517G, ponA: L421P, porB: porB1a)",≤ 0.015 µg/mL,0.5 µg/mL,0.06 µg/mL,8 µg/mL,≤ 0.015 µg/mL
"Neisseria gonorrhoeae isolate 64 (GyrA: Wild type, ParC: Wild type, mtrR: -35A Del, A39T, penA: Type XII NonMosaic, A517G, ponA: L421P, porB: G120D)",0.03 µg/mL,1 µg/mL,0.25 µg/mL,16 µg/mL,0.03 µg/mL

# MIC of N. gonorrhoeae strains collected 1971-2005, agar dilution (CLSI M07); ranges 0.03-64 mg/L (penicillin, azithromycin), 0.015-1 (cefixime, ceftriaxone), 0.5-256 (spectinomycin); higher = less susceptible. No active / inactive call per row; the paper counts cefixime and ceftriaxone above 0.25 and azithromycin above 1 mg/L as non-susceptible. The source says 'penicillin'; penicillin G is assumed. Isolates are numbered anew.
